{
  "source": "PubChem BioAssay AID588453",
  "about": "(National Center for Advancing Translational Sciences (NCATS), 2011)",
  "note": "Where “and” joins values, the source holds several entries; their conditions need not be identical. Equal values may be shown once. About 4,000 (1%) of roughly 390,000 compounds were called active. Inconclusive results, whose numbers are uncertain, are shown with a selection of clear calls. Calls follow the shape of the dose curve; as a rule, active = well fitted inhibition curve with a large enough effect; inconclusive = small, poorly fitted or top-dose-only effect; inactive = no such curve, though single readings can be large or run the other way. Potencies of inconclusive entries are doubtful fits and often do not repeat. Potency is read from the fitted curve at half-maximal effect; tags tell the direction and shape of the fitted curve.",
  "data": [
    {"biological_target": "Thioredoxin reductase 1, cytoplasmic (Rattus norvegicus) (UniProt O89049)", "sequence (O89049 whole entry, looked up)": "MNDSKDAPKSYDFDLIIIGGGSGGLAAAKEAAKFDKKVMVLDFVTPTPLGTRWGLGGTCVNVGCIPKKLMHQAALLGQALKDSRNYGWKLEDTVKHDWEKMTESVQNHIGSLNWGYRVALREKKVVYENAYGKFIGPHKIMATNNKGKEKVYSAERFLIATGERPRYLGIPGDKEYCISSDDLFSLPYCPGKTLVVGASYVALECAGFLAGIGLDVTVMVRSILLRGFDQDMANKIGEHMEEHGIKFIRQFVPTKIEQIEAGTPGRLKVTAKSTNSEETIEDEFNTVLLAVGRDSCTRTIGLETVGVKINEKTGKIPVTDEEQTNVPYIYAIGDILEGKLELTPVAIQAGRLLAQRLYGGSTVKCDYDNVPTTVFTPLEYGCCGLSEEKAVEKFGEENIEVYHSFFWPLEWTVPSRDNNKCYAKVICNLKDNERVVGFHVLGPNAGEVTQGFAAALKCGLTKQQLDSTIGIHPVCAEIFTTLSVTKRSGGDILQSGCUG", "experiment": "qHTS Assay for Inhibitors of Mammalian Selenoprotein Thioredoxin Reductase 1 (TrxR1): qHTS; also: nearly all actives have a fitted effect of over 65% in size", "settings": "recombinant rTrxR1, NADPH fluorescence consumption, selenite substrate; series mostly up to 114 µM", "outline": "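Rat TrxR1 (90 nM in the dispensed reagent) was pre-reduced with 400 uM NADPH for 5 min at room temperature, then incubated with compound for 15 min. After 400 uM selenite was added, NADPH fluorescence (Ex 340/Em 450 nm) was followed for 8 min.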", "values": [
      {"smiles": "COc1ccccc1CCC(=O)O", "Potency": "inactive"},
      {"smiles": "CC(=O)Nc1ccc(C(=O)/C=C/c2ccco2)cc1", "Potency": "active: 44.7 µM"},
      {"smiles": "CC(=O)c1cc(CN2CCCCC2)cc(OC(C)C)c1", "Potency": "inconclusive: 89.1 µM [inhibitor, single point]"},
      {"smiles": "COc1cccc(NC(=S)NN2C(C)CCCC2C)c1", "note": "(stereo unspecified)", "Potency": "inconclusive: 31.6 µM [inhibitor, full curve]"},
      {"smiles": "CCOC(=O)c1cc(S(=O)(=O)N2CCN(c3ccc(F)cc3)CC2)[nH]n1", "Potency": "inactive"},
      {"smiles": "CCC(C)n1c(=S)[nH]c2c(sc3ccc([N+](=O)[O-])cc32)c1=O", "note": "(stereo unspecified)", "Potency": "inactive"},
      {"smiles": "COc1cccc(N2CCN(C(=O)c3cc4c(=O)n(Cc5ccco5)ccc4nc3C)CC2)c1", "Potency": "inconclusive: 20 µM [inhibitor, partial curve, poor fit]"},
      {"smiles": "CSc1ccc(C2N=C(c3ccccc3)NO2)cc1", "note": "(stereo unspecified)", "Potency": "inconclusive: 50.1 µM [inhibitor, partial curve]"},
      {"smiles": "CCCN(CC(=O)Nc1ccccc1C)C(=O)CCl", "Potency": "inconclusive: 12.6 µM [inhibitor, partial curve, poor fit]"},
      {"smiles": "O=c1c2ccccc2sc2nc(C3CCCCC3)n(Cc3ccco3)c(=O)c12", "Potency": "inactive"},
      {"smiles": "CC(C)CC(=O)/C=C/n1c(=S)oc2ccccc21", "Potency": "active: 6.31 µM"},
      {"smiles": "CC(C1CC2CCC1C2)n1c(-c2cccs2)n[nH]c1=S", "note": "(stereo unspecified)", "Potency": "inconclusive: 17.8 µM [inhibitor, partial curve, poor fit]"},
      {"smiles": "COc1cccc(-c2cc(C(F)(F)F)n3ncc(C(=O)NCC4CCCO4)c3n2)c1", "note": "(stereo unspecified)", "Potency": "inconclusive: 89.1 µM [inhibitor, partial curve, poor fit]"},
      {"smiles": "O=C(Cn1nc(C(=O)O)c2ccccc2c1=O)Nc1cc(S(=O)(=O)N2CCOCC2)ccc1Cl", "Potency": "inconclusive: 89.1 µM [inhibitor, partial curve, poor fit]"},
      {"smiles": "Nc1nonc1-n1nnc(C(=O)N/N=C/c2cccc(O)c2)c1CN1CCCC1", "Potency": "inconclusive: 89.1 µM [inhibitor, partial curve, poor fit]"},
      {"smiles": "Cc1nnc(SCC(=O)Nc2ccc3c(c2)OCCO3)n1N", "Potency": "inactive"},
      {"smiles": "Cc1nn(-c2ccccc2)c(N)c1C(c1ccc(C(C)C)cc1)c1c(C)nn(-c2ccccc2)c1N", "Potency": "inconclusive: 89.1 µM [inhibitor, single point]"},
      {"smiles": "Cc1c(Cl)cccc1NC(=O)CSC(C)c1nc2ccccc2c(=O)[nH]1", "note": "(stereo unspecified)", "Potency": "inconclusive: 89.1 µM [inhibitor, single point]"},
      {"smiles": "CCCCCCc1cc2cc(C(=O)OCC)c(=O)oc2cc1O", "Potency": "inconclusive: 39.8 µM [inhibitor, single point]"},
      {"smiles": "Cc1cc(C#N)c(C)c(SCc2[nH]nc3c2C(c2ccccc2)C(C#N)=C(N)O3)n1", "note": "(stereo unspecified)", "Potency": "inconclusive: 14.1 µM [inhibitor, partial curve, poor fit]"},
      {"smiles": "CCOC(=O)Nc1ccc2c(c1)N(C(=O)CCN(CC)CC)c1ccccc1S2=O", "note": "(stereo unspecified)", "Potency": "active: 28.2 µM"},
      {"smiles": "N#CC1=C(N)Oc2cc(O)c(Cl)cc2C1c1cccnc1", "note": "(stereo unspecified)", "Potency": "inconclusive: 22.4 µM [inhibitor, full curve, poor fit]"},
      {"smiles": "Cc1cc(C)cc(NC(=O)Cn2c3ncccc3c(=O)n2-c2ccc(C)c(C)c2)c1", "Potency": "inactive"},
      {"smiles": "Cc1cccc(OCC(=O)NCCCNC(=O)c2cccnc2)c1", "Potency": "inactive"},
      {"smiles": "Cc1cccc(NC(=S)NC(=O)CCc2ccccc2)c1", "Potency": "inconclusive: 10 µM [inhibitor, partial curve, poor fit]"},
      {"smiles": "OCCCc1nc2n(n1)C(c1ccccc1)C=C(c1ccccc1)N2", "note": "(stereo unspecified)", "Potency": "inconclusive: 79.4 µM [inhibitor, partial curve]"},
      {"smiles": "COC(=O)C1=C(C)N(Cc2cccnc2)C(=O)C1", "Potency": "inconclusive: 28.2 µM [inhibitor, full curve]"},
      {"smiles": "CCn1ccc(C(=O)Nc2ccc(S(=O)(=O)Nc3ccccc3OC)cc2)n1", "Potency": "inactive"},
      {"smiles": "C#CCOCCOCCOCCNc1nc(N2CCN(C(=O)[C@H](CCC(=O)O)n3cc(C(N)CC(C)C)nn3)CC2)nc(N2CCN(C(=O)[C@H](Cc3cc4ccccc4[nH]3)n3cc(C(N)CC(C)C)nn3)CC2)n1", "note": "(stereo partly specified)", "Potency": "active: 28.2 µM"},
      {"smiles": "COc1cccc(C2=NNC(=NCc3ccccc3)SC2)c1", "Potency": "inconclusive: 89.1 µM [inhibitor, single point]"},
      {"smiles": "COc1cccc(C2Nc3cccc4cccc(c34)N2)c1", "Potency": "inconclusive: 70.8 µM [inhibitor, partial curve]"},
      {"smiles": "Cc1cc(C)cc(C(=O)NC(=S)Nc2ccc3[nH]c(=O)[nH]c3c2)c1", "Potency": "inconclusive: 4.47 µM [inhibitor, full curve]"},
      {"smiles": "Cc1ccsc1C(=O)OCC(=O)NCc1ccco1", "Potency": "inactive"},
      {"smiles": "O=S(=O)(c1ccc(Br)cc1)N1CCOC12CCCCC2", "Potency": "inactive"},
      {"smiles": "Cc1nn(CC(C)C)c(Cl)c1C(=O)N(c1ccc(Cl)cc1F)S(C)(=O)=O", "Potency": "inconclusive: 89.1 µM [inhibitor, partial curve, poor fit]"},
      {"smiles": "COCCn1c(SCc2cccnc2)nnc1-c1ccco1", "Potency": "inconclusive: 79.4 µM [inhibitor, single point]"},
      {"smiles": "CC(=O)Nc1ccc(C(=O)OCC(=O)N(c2ccccc2)C2CCCCC2)cc1", "Potency": "inconclusive: 56.2 µM [inhibitor, single point]"},
      {"smiles": "Cc1ccc(N2C(=O)CC(Sc3ncn[nH]3)C2=O)cc1", "note": "(stereo unspecified)", "Potency": "inconclusive: 5.01 µM [inhibitor, partial curve, poor fit]"},
      {"smiles": "CCCCNC(=O)NS(=O)(=O)c1ccc(C(=O)OC(C)C)o1", "Potency": "inconclusive: 8.91 µM [inhibitor, single point]"},
      {"smiles": "C#CCOCCOCCOCCNc1nc(N2CCN(C(=O)C([C@@H](C)CC)n3cc(C(N)COC(=O)C(F)(F)F)nn3)CC2)nc(N2CCN(C(=O)[C@H](CCC(=O)O)n3cc(C(N)CC(C)C)nn3)CC2)n1", "note": "(stereo partly specified)", "Potency": "inconclusive: 15.8 µM [inhibitor, partial curve]"},
      {"smiles": "CCOC(=O)c1c(N)sc(=S)c2c1CCC2", "Potency": "active: 70.8 µM"},
      {"smiles": "C=CCN1CCc2c(cc(O)c(O)c2Br)[C@@H](c2ccccc2)C1", "Potency": "inconclusive: 13.4 µM [inhibitor, partial curve] and inconclusive: 10 µM [inhibitor, partial curve]"},
      {"smiles": "COc1ccccc1N1CCN(C(=O)COc2ccc(Cl)cc2Br)CC1", "Potency": "inactive"},
      {"smiles": "COc1c(-c2ccc(O)c(O)c2)oc2cc(O)cc(O)c2c1=O", "Potency": "inconclusive: 44.7 µM [inhibitor, partial curve, poor fit]"},
      {"smiles": "CCOC(=O)CC(=O)CSc1nc(-c2cccnc2)ccc1C#N", "Potency": "inconclusive: 35.5 µM [inhibitor, single point]"},
      {"smiles": "Cc1ccc2nc(-c3ccc(NC(=S)NC(=O)C(C)C)cc3)sc2c1", "Potency": "inactive"},
      {"smiles": "CN1CCN(S(=O)(=O)c2ccc(Nc3cccc(Cl)c3)c([N+](=O)[O-])c2)CC1", "Potency": "inconclusive: 56.2 µM [inhibitor, partial curve, poor fit]"},
      {"smiles": "CCOC(=O)c1sc(NC(=S)NC(=O)c2ccccc2)c(C(=O)OCC)c1C", "Potency": "inactive"},
      {"smiles": "O=C(NC(=S)Nc1cnc2ccccc2c1)c1ccccc1", "Potency": "inconclusive: 35.5 µM [inhibitor, partial curve]"},
      {"smiles": "Cc1ccc(Cl)cc1-n1c(=O)cc(N2CCN(C(=O)c3ccco3)CC2)[nH]c1=O", "Potency": "inconclusive: 56.2 µM [inhibitor, partial curve, poor fit]"},
      {"smiles": "CC1=C(C(=O)Nc2ccccc2)C(c2ccc(C)o2)n2c(s/c(=C\\c3ccco3)c2=O)=N1", "note": "(stereo unspecified)", "Potency": "inconclusive: 70.8 µM [inhibitor, single point]"},
      {"smiles": "CCCc1ccc2oc(C(=O)NCCN3CCCC(O)C3)c(C)c2c1", "note": "(stereo unspecified)", "Potency": "inconclusive: 3.98 µM [inhibitor, partial curve]"},
      {"smiles": "COc1ccc(NC(=O)/C=C\\C(=O)N(c2ccc(C(C)C)cc2)C(C(=O)NCc2ccco2)c2ccc(F)cc2)cc1", "note": "(stereo unspecified)", "Potency": "inactive"},
      {"smiles": "O=C(c1ccccc1)N(Cc1ccco1)Cc1cccs1", "Potency": "inconclusive: 89.1 µM [inhibitor, single point]"},
      {"smiles": "CCc1ccccc1NC(=O)CCS(=O)(=O)c1cccc2nonc12", "Potency": "inconclusive: 50.1 µM [inhibitor, partial curve, poor fit]"},
      {"smiles": "CC1CN(S(=O)(=O)c2cc(C(=O)NCCC3=CCCCC3)ccc2Cl)CC(C)O1", "note": "(stereo unspecified)", "Potency": "inactive"},
      {"smiles": "O=C1c2ccccc2C(=O)c2c1oc(C(F)(F)F)c2C(=O)c1ccccc1", "Potency": "inconclusive: 44.7 µM [inhibitor, full curve]"},
      {"smiles": "CCc1cccc(C)c1NC(=S)NCc1ccc2[nH]c(C)cc2c1", "Potency": "inactive"},
      {"smiles": "O=C(NNC(=S)Nc1cccc2ccccc12)c1cccc(Br)c1", "Potency": "inconclusive: 11.2 µM [inhibitor, partial curve, poor fit]"},
      {"smiles": "CCOC(=O)C1(C)NC(c2cccc(C)c2)C2C(=O)N(c3ccccc3)C(=O)C21", "note": "(stereo unspecified)", "Potency": "inconclusive: 15.8 µM [inhibitor, partial curve]"},
      {"smiles": "COc1ccc(N2CCN(C(=O)CSc3nc4cc(OC)c(OC)cc4cc3C#N)CC2)cc1", "Potency": "inconclusive: 50.1 µM [inhibitor, single point]"},
      {"smiles": "Cc1ccc(-c2c(C#N)c(N)nc3c2CCCCC3)o1", "Potency": "inconclusive: 22.4 µM [inhibitor, single point]"},
      {"smiles": "CC1(C)Cc2ccccc2/C(=C/C(=O)N2CCCCCC2)N1", "Potency": "inactive"},
      {"smiles": "Cc1cc(=O)n(CCc2ccccc2)c(O)c1C#N", "Potency": "inconclusive: 44.7 µM [inhibitor, partial curve]"},
      {"smiles": "O=C(NCc1ccco1)C1OCCc2ccccc21", "note": "(stereo unspecified)", "Potency": "inconclusive: 25.1 µM [inhibitor, partial curve, poor fit]"},
      {"smiles": "O=C(Nc1ncc(S(=O)(=O)c2ccc([N+](=O)[O-])cc2)s1)c1ccccc1F", "Potency": "inconclusive: 79.4 µM [inhibitor, partial curve]"}
    ]}
  ]
}
